# In the supplement of paper PMC12217912:
# Some of the results follow. The full chains were built here from the parent and the listed change. Inactive controls read about 0.05.
# B1: TEV protease; numbered along this chain (parent)
# chain: MGESLFKGPRDYNPISSSICHLTNESDGHTTSLYGIGFGPFIITNKHLFRRNNGTLVVQSLHGVFKVKDTTTLQQHLVDGRDMIIIRMPKDFPPFPQKLKFREPQREERICLVTTNFQTKSMSSMVSDTSCTFPSGDGIFWKHWIQTKDGQCGSPLVSTRDGFIVGIHSASNFTNTNNYFTSVPKNFMELLTNQEAQQWVSGWRLNADSVLWGGHKVFMVKPEEPFQPVKEATQL
# Variants of: B1
# Assay: raw area under fraction-flipped curve 0-4 h after induction (AUC4h, not background-subtracted), DNA-recorder readout of cleavage of the substrate (dimensionless); higher = more cleavage of the substrate by the protease variant
# Settings: temperature: 34 °C; time window: 0-4 h after rhamnose induction
# 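Also: Bxb1 expression induced with 0.2% (w/v) L-rhamnose at OD600 near 0.5, cultures sampled hourly, flipped fraction per protease–substrate barcode pair counted by paired-end Illumina sequencing.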
Variant,area with substrate ENAYFQS,area with substrate ENDYFQS,area with substrate ENFYFQS,area with substrate ENGYFQS,area with substrate ENHYFQS,area with substrate ENKYFQS,area with substrate ENNYFQS,area with substrate ENRYFQS,area with substrate ENSYFQS,area with substrate ENTYFQS,area with substrate ENWYFQS,area with substrate ENYYFQS,area with substrate ENCYFQS,area with substrate ENEYFQS,area with substrate ENIYFQS,area with substrate ENQYFQS,area with substrate ENVYFQS,area with substrate ENMYFQS,area with substrate ENPYFQS
MGESLFKGPRDYNPISSSICHLTNESDGHTTSLYGIGFGPFIITNKHLFRRNNGTLVVQSLHGVFKVKDTTTLQQHLVDGRDMIIIRMPKDFPPFPQKLKFREPQREERICLVTTNFQTKSMSSMVSDTSCTFPSGDGIFWKHWIQTKDGQCGSPLVSTRDGFIVGIHSASNFTNTNNYFTSVPKWFMELLTNQEAQQWVSGWRLNADSVLWGGHKVFMVKPEEPFQPVKEATQL [N186W],0.0604,0.0631,0.0475,0.0449,0.0415,0.0483,0.0705,0.063,0.0671,0.0607,0.0625,0.0861,,,,,,,
MGESLFKGPRDYNPISSSICHLTNESDGHTTSLYGIGFGPFIITNKHLFRRNNGTLVVQSLHGVFKVKDTTTLQQHLVDGRDMIIIRMPKDFPPFPQKLKFREPQREERICLVTTNFQTKSMSSMVSDTSCTFPSGDGIFWKHWIQTKDGQCGSPLVSTRDGFIVGIHSASNFTNTNNYFTSVPKNHMELLTNQEAQQWVSGWRLNADSVLWGGHKVFMVKPEEPFQPVKEATQL [F187H],0.0628,0.0416,0.0626,0.0528,0.0664,0.0615,0.0579,,0.0514,,0.0322,,0.0485,0.0658,0.0573,0.0522,0.0448,,
MGESLFKGPRDYNPISSSICHLTNESDGHTTSLYGIGFGPFIITNKHLFRRNNGTLVVQSLHGVFKVKDTTTLQQHLVDGRDMIIIRMPKDFPPFPQKLKFREPQREERICLVTTNFQTKSMSSMVSDTSCTFPSGDGIFWKHWIQTKDGQCGSPLVSTRDGFIVGIHSASNFTNTNNYFTSVPKNFYELLTNQEAQQWVSGWRLNADSVLWGGHKVFMVKPEEPFQPVKEATQL [M188Y],0.0518,0.0662,0.0684,0.0532,0.0457,,0.0569,0.0369,0.0052,,,0.0712,,,0.109,0.0655,,,
MGESLFKGPRDYNPISSSICHLTNESDGHTTSLYGIGFGPFIITNKHLFRRNNGTLVVQSLHGVFKVKDTTTLQQHLVDGRDMIIIRMPKDFPPFPQKLKFREPQREERICLVTTNFQTKSMSSMVSDTSCTFPSGDGIFWKHWIQTKDGQCGSPLVSTRDGFIVGIHSASNFTNTNNYFTSVPKNFMEWLTNQEAQQWVSGWRLNADSVLWGGHKVFMVKPEEPFQPVKEATQL [L190W],0.0564,0.0649,0.0572,,0.076,,,0.0618,0.0335,,,,,0.0637,,0.0595,0.0721,0.0765,
MGESLFKGPRDYNPISSSICHLTNESDGHTTSLYGIGFGPFIITNKHLFRRNNGTLVVQSLHGVFKVKDTTTLQQHLVDGRDMIIIRMPKDFPPFPQKLKFREPQREERICLVTTNFQTKSMSSMVSDTSCTFPSGDGIFWKHWIQTKDGQCGSPLVSTRDGFIVGIHSASNFTNTNNYFTSVPKNFMELLTNEEAQQWVSGWRLNADSVLWGGHKVFMVKPEEPFQPVKEATQL [Q194E],0.0569,,0.0729,0.041,0.0614,,0.0587,0.0628,0.0715,,,,0.0769,0.0551,0.117,0.0613,0.0767,,0.0464
MGESLFKGPRDYNPISSSICHLTNESDGHTTSLYGIGFGPFIITNKHLFRRNNGTLVVQSLHGVFKVKDTTTLQQHLVDGRDMIIIRMPKDFPPFPQKLKFREPQREERICLVTTNFQTKSMSSMVSDTSCTFPSGDGIFWKHWIQTKDGQCGSPLVSTRDGFIVGIHSASNFTNTNNYFTSVPKNFMELLTNPEAQQWVSGWRLNADSVLWGGHKVFMVKPEEPFQPVKEATQL [Q194P],0.0533,0.0761,,0.049,0.0578,0.0408,0.0498,0.0453,0.0694,0.0617,,,0.067,0.0656,,0.0583,0.0828,0.0982,0.0682
MGESLFKGPRDYNPISSSICHLTNESDGHTTSLYGIGFGPFIITNKHLFRRNNGTLVVQSLHGVFKVKDTTTLQQHLVDGRDMIIIRMPKDFPPFPQKLKFREPQREERICLVTTNFQTKSMSSMVSDTSCTFPSGDGIFWKHWIQTKDGQCGSPLVSTRDGFIVGIHSASNFTNTNNYFTSVPKNFMELLTNQFAQQWVSGWRLNADSVLWGGHKVFMVKPEEPFQPVKEATQL [E195F],0.0533,0.0643,0.0628,,0.0484,,,0.0563,0.138,0.0749,0.0359,,0.0653,0.0556,,0.0661,0.0715,0.112,0.0569
MGESLFKGPRDYNPISSSICHLTNESDGHTTSLYGIGFGPFIITNKHLFRRNNGTLVVQSLHGVFKVKDTTTLQQHLVDGRDMIIIRMPKDFPPFPQKLKFREPQREERICLVTTNFQTKSMSSMVSDTSCTFPSGDGIFWKHWIQTKDGQCGSPLVSTRDGFIVGIHSASNFTNTNNYFTSVPKNFMELLTNQEHQQWVSGWRLNADSVLWGGHKVFMVKPEEPFQPVKEATQL [A196H],0.0579,0.0663,0.0655,0.0706,0.0634,0.0581,0.0602,0.0642,0.0754,0.0711,0.05,0.0486,0.0473,0.0686,,0.0557,0.0764,0.0843,0.0593
MGESLFKGPRDYNPISSSICHLTNESDGHTTSLYGIGFGPFIITNKHLFRRNNGTLVVQSLHGVFKVKDTTTLQQHLVDGRDMIIIRMPKDFPPFPQKLKFREPQREERICLVTTNFQTKSMSSMVSDTSCTFPSGDGIFWKHWIQTKDGQCGSPLVSTRDGFIVGIHSASNFTNTNNYFTSVPKNFMELLTNQEIQQWVSGWRLNADSVLWGGHKVFMVKPEEPFQPVKEATQL [A196I],0.0687,0.0637,0.0714,0.0632,0.0607,,0.0576,0.0464,0.0616,0.0622,,0.0676,0.0781,0.0711,0.104,0.0571,0.0748,0.0668,
